Reference: US20250214977A1, “STAT6 INHIBITORS AND USES THEREOF” (Kymera Therapeutics, Inc., priority 2024, published 2025)

biological target: T1, biotinylated truncated STAT6 (123-632)-avi (Homo sapiens, UniProt P42226); test: Homogenous Time-Resolved Fluorescence (HTRF) binding assay; details: 0.15 nM biotinylated truncated STAT6 (123-632)-avi, 20 nM fluorescein-labeled probe, 30 minutes room temperature
T1 sequence (P42226 123-632 limits assumed): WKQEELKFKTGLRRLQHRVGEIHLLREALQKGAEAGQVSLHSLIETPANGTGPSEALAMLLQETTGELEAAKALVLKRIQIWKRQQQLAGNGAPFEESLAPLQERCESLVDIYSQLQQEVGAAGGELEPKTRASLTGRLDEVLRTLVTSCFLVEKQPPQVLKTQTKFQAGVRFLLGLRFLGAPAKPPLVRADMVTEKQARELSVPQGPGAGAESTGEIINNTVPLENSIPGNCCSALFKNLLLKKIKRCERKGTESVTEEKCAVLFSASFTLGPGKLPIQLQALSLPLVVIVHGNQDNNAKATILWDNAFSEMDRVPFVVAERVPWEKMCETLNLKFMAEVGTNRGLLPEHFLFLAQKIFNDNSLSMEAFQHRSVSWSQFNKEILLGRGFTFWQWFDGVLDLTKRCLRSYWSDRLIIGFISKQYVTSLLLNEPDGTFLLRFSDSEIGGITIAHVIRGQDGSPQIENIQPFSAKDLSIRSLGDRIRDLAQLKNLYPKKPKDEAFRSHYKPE

`CCc1nc(C)ccc1-c1cc(C(=O)N2CCN(c3ncc(F)cc3OC)CC2)cc2c(F)c(C3CCCN(C(=O)C(=O)O)C3)n(CC3CC3)c12` (stereo not drawn) [Example I-1335] and `CCc1nc(C)ccc1-c1cc(C(=O)N2Cc3cnn(C)c3C2)cc2c(F)c(C3CCCN(C(=O)CC(=O)O)C3)n(CC3CC3)c12` (stereo not drawn) [Example I-1336] fall in the same range of IC50: 1000 to 10000 nM for the first, 1000 to 10000 nM for the second.

Compared with `CCc1nc(C)ccc1-c1cc(-n2c(C)nn(C)c2=O)cc2cc(C3=CCCN(C(C)=O)C3)n(CC3CC3)c12` [Example I-1339], `Cc1ccc(-c2cc(C3=CCCN(C(=O)CCn4ccnn4)C3)c(F)c3[nH]c(C(=O)N(C)C4CC4)cc23)c(C2CC2)n1` [Example I-1343] is lower in IC50: 1000 to 10000 nM for the first, less than 100 nM for the second.

`COc1ccccc1-c1cc(C2=CCCN(C(=O)CCn3ccnn3)C2)cc2[nH]c(=O)oc12` [Example I-1340] and `COc1ccccc1-c1cc(C2=CCCN(C(=O)CCn3ccnn3)C2)c(F)c2[nH]c(C(=O)Nc3nonc3C)cc12` [Example I-1353] fall in the same range of IC50: 100 to 1000 nM for the first, 100 to 1000 nM for the second.

`COc1ccncc1-c1cc(C2=CCCN(C(=O)CCn3ccnn3)C2)c(F)c2[nH]c(C(=O)N(C)C3CC3)cc12` [Example I-1341] and `COc1ccccc1-c1cc(C2=CCCN(C(=O)CCn3ccnn3)C2)c(F)c2[nH]c(C(=O)N(C)C3CC(C)C3)cc12` (stereo not drawn) [Example I-1374] cannot be ordered by IC50: less than 100 nM for the first, less than 100 nM for the second.

`CN(C(=O)c1cc2c(-c3cccnc3C3CC3)cc(C3=CCCN(C(=O)CCn4ccnn4)C3)c(F)c2[nH]1)C1CC1` [Example I-1342] and `COc1ccccc1-c1cc(C2=CCCN(C(=O)CCn3ccnn3)C2)c(F)c2[nH]c(C(=O)N(C)C3CC(O)C3)cc12` (stereo not drawn) [Example I-1376] cannot be ordered by IC50: less than 100 nM for the first, less than 100 nM for the second.

First: CCc1ccncc1-c1cc(C2=CCCN(C(=O)C(C)(C)C(=O)O)C2)c(F)c2[nH]c(C(=O)N3CCN(c4ncc(F)cc4OC)CC3)cc12 [Example I-1344]
Second: COc1ccccc1-c1cc(C2=CCCN(C(=O)CCn3ccnn3)C2)c(F)c2[nH]c(C(=O)N3CCN(c4cc(C)nc(C)n4)CC3)cc12 [Example I-1380]
The IC50 of the first is higher: 1000 to 10000 nM for the first, less than 100 nM for the second.

Compared with `COc1ccccc1-c1cc(C2=CCCN(C(=O)CCn3ccnn3)C2)c(F)c2[nH]c(C(=O)N3CCN(c4c(C)c5ccccc5n4CC4CC4)CC3)cc12` [Example I-1345], `COc1ccccc1-c1cc(C2=CCCN(C(=O)CCn3ccnn3)C2)c(F)c2[nH]c(C(=O)N3CCN(c4cn(C)cn4)CC3)cc12` [Example I-1368] is lower in IC50: 1000 to 10000 nM for the first, less than 100 nM for the second. The second is the more potent here.

`COc1ccccc1-c1cc(C2=CCCN(C(=O)CCn3ccnn3)C2)c(F)c2[nH]c(C(=O)N3CCN(c4c(C(F)(F)F)ncn4C)CC3)cc12` [Example I-1346] and `COc1ccccc1-c1cc(C2=CCCN(C(=O)CCn3ccnn3)C2)c(F)c2[nH]c(C(=O)N3CCN(c4cnc(=O)n(C)c4)CC3)cc12` [Example I-1363] cannot be ordered by IC50: less than 100 nM for the first, less than 100 nM for the second.

`COc1ccccc1-c1cc(C2=CCCN(C(=O)CCn3ccnn3)C2)c(F)c2[nH]c(C(=O)N3CCC(C4C(=O)Nc5ccccc54)CC3)cc12` (stereo not drawn) [Example I-1347] and `CCNC1CCN(C(=O)c2cc3c(-c4ccccc4OC)cc(C4=CCCN(C(=O)CCn5ccnn5)C4)c(F)c3[nH]2)CC1` [Example I-1352] fall in the same range of IC50: 100 to 1000 nM for the first, 100 to 1000 nM for the second.

First: COc1ccccc1-c1cc(C2=CCCN(C(=O)CCn3ccnn3)C2)c(F)c2[nH]c(C(=O)N3CCNC(CC#N)C3)cc12 (stereo not drawn) [Example I-1348]
Second: COc1ccccc1-c1cc(C2=CCCN(C(=O)CCn3ccnn3)C2)c(F)c2[nH]c(C(=O)N3CCNC(C)C3)cc12 (stereo not drawn) [Example I-1360]
The IC50 of the first is higher: 100 to 1000 nM for the first, less than 100 nM for the second.

First: COc1ccccc1-c1cc(C2=CCCN(C(=O)CCn3ccnn3)C2)c(F)c2[nH]c(C(=O)N3CCN(CCS(C)(=O)=O)CC3)cc12 [Example I-1349]
Second: COc1ccccc1-c1cc(C2=CCCN(C(=O)CCn3ccnn3)C2)c(F)c2[nH]c(C(=O)N3CCN(CCN4CCCC4=O)CC3)cc12 [Example I-1355]
The IC50 of the first is higher: 100 to 1000 nM for the first, less than 100 nM for the second.

`CCn1cc(C#N)c(NC(=O)c2cc3c(-c4ccccc4OC)cc(C4=CCCN(C(=O)CCn5ccnn5)C4)c(F)c3[nH]2)n1` [Example I-1350] and `CCn1nccc1NC(=O)c1cc2c(-c3ccccc3OC)cc(C3=CCCN(C(=O)CCn4ccnn4)C3)c(F)c2[nH]1` [Example I-1394] cannot be ordered by IC50: less than 100 nM for the first, less than 100 nM for the second.

First: COc1ccccc1-c1cc(C2=CCCN(C(=O)CCn3ccnn3)C2)c(F)c2[nH]c(C(=O)N(C)CCCNC(C)=O)cc12 [Example I-1351]
Second: COc1ccccc1-c1cc(C2=CCCN(C(=O)CCn3ccnn3)C2)c(F)c2[nH]c(C(=O)NC3CN(C(C)=O)C3)cc12 [Example I-1356]
The IC50 of the first is lower: less than 100 nM for the first, 10000 to 100000 nM for the second. The first is the more potent here.

First: COc1ccccc1-c1cc(C2=CCCN(C(=O)CCn3ccnn3)C2)c(F)c2[nH]c(C(=O)N3CCN(CCN4CCC(F)(F)C4)CC3)cc12 [Example I-1354]
Second: COc1ccccc1-c1cc(C2=CCCN(C(=O)CCn3ccnn3)C2)c(F)c2[nH]c(C(=O)N3CCN(Cc4ncn(C)c4C)CC3)cc12 [Example I-1371]
The IC50 of the first is higher: 100 to 1000 nM for the first, less than 100 nM for the second.

`COc1ccccc1-c1cc(C2=CCCN(C(=O)CCn3ccnn3)C2)c(F)c2[nH]c(C(=O)N3CCN(c4cc(CO)ccn4)CC3)cc12` [Example I-1357] and `COc1ccccc1-c1cc(C2=CCCN(C(=O)CCn3ccnn3)C2)c(F)c2[nH]c(C(=O)N3CCN(c4cncc(C#N)n4)CC3)cc12` [Example I-1358] cannot be ordered by IC50: less than 100 nM for the first, less than 100 nM for the second.

`COc1ccccc1-c1cc(C2=CCCN(C(=O)CCn3ccnn3)C2)c(F)c2[nH]c(C(=O)N3CCN(c4nnc(C)o4)CC3)cc12` [Example I-1361] and `COc1ccccc1-c1cc(C2=CCCN(C(=O)CCn3ccnn3)C2)c(F)c2[nH]c(C(=O)N3CCc4nnc(-c5ccccn5)n4CC3)cc12` [Example I-1372] cannot be ordered by IC50: less than 100 nM for the first, less than 100 nM for the second.

`COc1ccccc1-c1cc(C2=CCCN(C(=O)CCn3ccnn3)C2)c(F)c2[nH]c(C(=O)N3CCC(Sc4ccc(F)cc4)C3)cc12` (stereo not drawn) [Example I-1364] and `COc1ccccc1-c1cc(C2=CCCN(C(=O)CCn3ccnn3)C2)c(F)c2[nH]c(C(=O)N3CC(C(F)(F)F)C3)cc12` [Example I-1375] fall in the same range of IC50: 100 to 1000 nM for the first, 100 to 1000 nM for the second.

`COc1ccccc1-c1cc(C2=CCCN(C(=O)CCn3ccnn3)C2)c(F)c2[nH]c(C(=O)N3CCC(F)(CO)C3)cc12` (stereo not drawn) [Example I-1365] and `COc1ccccc1-c1cc(C2=CCCN(C(=O)CCn3ccnn3)C2)c(F)c2[nH]c(C(=O)N3CCC(C)(C#N)C3)cc12` (stereo not drawn) [Example I-1366] cannot be ordered by IC50: less than 100 nM for the first, less than 100 nM for the second.

First: COC(=O)C1(NC(=O)c2cc3c(-c4ccccc4OC)cc(C4=CCCN(C(=O)CCn5ccnn5)C4)c(F)c3[nH]2)COC1 [Example I-1367]
Second: COC(=O)C1(NC(=O)c2cc3c(-c4ccccc4OC)cc(C4=CCCN(C(=O)CCn5ccnn5)C4)c(F)c3[nH]2)CC1 [Example I-1392]
The IC50 of the first is higher: 100 to 1000 nM for the first, less than 100 nM for the second.

First: COc1ccccc1-c1cc(C2=CCCN(C(=O)CCn3ccnn3)C2)c(F)c2[nH]c(C(=O)N3CCNC4(CC4)C3)cc12 [Example I-1370]
Second: COc1ccccc1-c1cc(C2=CCCN(C(=O)CCn3ccnn3)C2)c(F)c2[nH]c(C(=O)N3CC4(CC(C)C4)C3)cc12 [Example I-1393]
The IC50 of the first is lower: less than 100 nM for the first, 100 to 1000 nM for the second.

`COc1ccccc1-c1cc(C2=CCCN(C(=O)CCn3ccnn3)C2)c(F)c2[nH]c(C(=O)N3CCC(CN(C)C)CC3)cc12` [Example I-1373] and `COc1ccccc1-c1cc(C2=CCCN(C(=O)CCn3ccnn3)C2)c(F)c2[nH]c(C(=O)N3CCN(C)C[C@@H]3C)cc12` [Example I-1395] cannot be ordered by IC50: less than 100 nM for the first, less than 100 nM for the second.

Compared with `COc1ccccc1-c1cc(C2=CCCN(C(=O)CCn3ccnn3)C2)c(F)c2[nH]c(C(=O)NC3CC(=O)N(C)C3)cc12` (stereo not drawn) [Example I-1377], `COc1ccccc1-c1cc(C2=CCCN(C(=O)CCn3ccnn3)C2)c(F)c2[nH]c(C(=O)N3CCc4nc[nH]c(=O)c4C3)cc12` [Example I-1388] is lower in IC50: 100 to 1000 nM for the first, less than 100 nM for the second. The second is the more potent here.

`COc1ccccc1-c1cc(C2=CCCN(C(=O)CCn3ccnn3)C2)c(F)c2[nH]c(C(=O)N3CCN(Cc4cccc5c4OCO5)CC3)cc12` [Example I-1382] and `COc1ccccc1-c1cc(C2=CCCN(C(=O)CCn3ccnn3)C2)c(F)c2[nH]c(C(=O)N3CCN(C4CC5(COC5)C4)CC3)cc12` [Example I-1383] fall in the same range of IC50: 100 to 1000 nM for the first, 100 to 1000 nM for the second.

`CCCc1noc(C2CCN(C(=O)c3cc4c(-c5ccccc5OC)cc(C5=CCCN(C(=O)CCn6ccnn6)C5)c(F)c4[nH]3)CC2)n1` [Example I-1384] and `COc1ccccc1-c1cc(C2=CCCN(C(=O)CCn3ccnn3)C2)c(F)c2[nH]c(C(=O)N3CCC(c4ncc(Cl)cn4)CC3)cc12` [Example I-1385] cannot be ordered by IC50: less than 100 nM for the first, less than 100 nM for the second.

`COc1ccccc1-c1cc(C2=CCCN(C(=O)CCn3ccnn3)C2)c(F)c2[nH]c(C(=O)N(C)c3nccc(CO)n3)cc12` [Example I-1386] and `COc1ccccc1-c1cc(C2=CCCN(C(=O)CCn3ccnn3)C2)c(F)c2[nH]c(C(=O)N3CCOc4ncccc43)cc12` [Example I-1391] cannot be ordered by IC50: less than 100 nM for the first, less than 100 nM for the second.

`COc1ccccc1-c1cc(C2=CCCN(C(=O)CCn3ccnn3)C2)c(F)c2[nH]c(C(=O)N3CCC4(CC3)OC(=O)Nc3ncccc34)cc12` [Example I-1390] and `COc1ccccc1-c1cc(C2=CCCN(C(=O)CCn3ccnn3)C2)c(F)c2[nH]c(C(=O)N3CCn4c3cc(Cl)nc4=O)cc12` [Example I-1398] cannot be ordered by IC50: less than 100 nM for the first, less than 100 nM for the second.

Compared with `COc1ccccc1-c1cc(C2=CCCN(C(=O)CCn3ccnn3)C2)c(F)c2[nH]c(C(=O)Nc3cccc(S(C)(=O)=O)c3)cc12` [Example I-1396], `COc1ccccc1-c1cc(C2=CCCN(C(=O)CCn3ccnn3)C2)c(F)c2[nH]c(C(=O)N[C@H](C)c3nc4ccccc4[nH]3)cc12` [Example I-1397] is lower in IC50: 100 to 1000 nM for the first, less than 100 nM for the second. The second is the more potent here.
